The supplement of paper PMC8728848
This is one part of the list.

Assays:
Assay in all cases: glycan array binding signal (z-score within array); higher = stronger binding
Conditions in all cases: glycan notation: IUPAC condensed, linker removed
[1] = target: GlcNAc(b1-2)[GlcNAc(b1-4)]Man(a1-3)[GlcNAc(b1-4)][GlcNAc(b1-2)[GlcNAc(b1-6)]Man(a1-6)]Man(b1-4)GlcNAc(b1-4)GlcNAc
Summary of the method: (§1)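 Glycan array binding is given as a within-array Z-score, which can be read as non-binding when negative. The arrays, 3228 of them, came from the Consortium for Functional Glycomics database and were retained only where the protein sequence was available. Z-scores were averaged across arrays of the same protein sequence at different concentrations or buffers and across linkers.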

[2] = target: GlcNAc(b1-2)[GlcNAc(b1-4)]Man(a1-3)[GlcNAc(b1-4)][GlcNAc(b1-2)[GlcNAc(b1-6)]Man(a1-6)]Man(b1-4)GlcNAc(b1-4)[Fuc(a1-6)]GlcNAc
Summary of the method: as §1

[3] = target: GlcNAc(b1-2)[GlcNAc(b1-6)]Man(a1-6)[GlcNAc(b1-2)Man(a1-3)]Man(b1-4)GlcNAc(b1-4)GlcNAc
Summary of the method: as §1

[4] = target: GlcNAc(b1-2)[GlcNAc(b1-6)]Man(a1-6)[GlcNAc(b1-2)Man(a1-3)]Man(b1-4)GlcNAc(b1-4)[Fuc(a1-6)]GlcNAc
Summary of the method: as §1

[5] = target: GlcNAc(b1-2)[GlcNAc(b1-6)]Man(a1-6)[GlcNAc(b1-4)][GlcNAc(b1-2)Man(a1-3)]Man(b1-4)GlcNAc(b1-4)GlcNAc
Summary of the method: as §1

GlcNAc(b1-3)Fuc = target: GlcNAc(b1-3)Fuc
Summary of the method: as §1

GlcNAc(b1-3)Gal = target: GlcNAc(b1-3)Gal
Summary of the method: as §1

[6] = target: GlcNAc(b1-3)Gal(b1-3)GalNAc
Summary of the method: as §1

GlcNAc(b1-3)Gal(b1-4)Glc = target: GlcNAc(b1-3)Gal(b1-4)Glc
Summary of the method: as §1

[7] = target: GlcNAc(b1-3)Gal(b1-4)GlcNAc
Summary of the method: as §1

[8] = target: GlcNAc(b1-3)Gal(b1-4)GlcNAc(b1-2)Man(a1-3)[GlcNAc(b1-3)Gal(b1-4)GlcNAc(b1-2)Man(a1-6)]Man(b1-4)GlcNAc(b1-4)GlcNAc
Summary of the method: as §1

[9] = target: GlcNAc(b1-3)Gal(b1-4)GlcNAc(b1-2)Man(a1-3)[GlcNAc(b1-3)Gal(b1-4)GlcNAc(b1-2)Man(a1-6)]Man(b1-4)GlcNAc(b1-4)[Fuc(a1-6)]GlcNAc
Summary of the method: as §1

[10] = target: GlcNAc(b1-3)Gal(b1-4)GlcNAc(b1-2)[GlcNAc(b1-3)Gal(b1-4)GlcNAc(b1-6)]Man(a1-6)[GlcNAc(b1-3)Gal(b1-4)GlcNAc(b1-2)Man(a1-3)]Man(b1-4)GlcNAc(b1-4)GlcNAc
Summary of the method: as §1

[11] = target: GlcNAc(b1-3)Gal(b1-4)GlcNAc(b1-3)Gal(b1-4)GlcNAc
Summary of the method: as §1

[12] = target: GlcNAc(b1-3)Gal(b1-4)GlcNAc(b1-3)Gal(b1-4)GlcNAc(b1-2)Man(a1-3)[GlcNAc(b1-3)Gal(b1-4)GlcNAc(b1-3)Gal(b1-4)GlcNAc(b1-2)Man(a1-6)]Man(b1-4)GlcNAc(b1-4)GlcNAc
Summary of the method: as §1

[13] = target: GlcNAc(b1-3)Gal(b1-4)GlcNAc(b1-3)Gal(b1-4)GlcNAc(b1-2)Man(a1-3)[GlcNAc(b1-3)Gal(b1-4)GlcNAc(b1-3)Gal(b1-4)GlcNAc(b1-2)Man(a1-6)]Man(b1-4)GlcNAc(b1-4)[Fuc(a1-6)]GlcNAc
Summary of the method: as §1

[14] = target: GlcNAc(b1-3)Gal(b1-4)GlcNAc(b1-3)Gal(b1-4)GlcNAc(b1-2)[GlcNAc(b1-3)Gal(b1-4)GlcNAc(b1-3)Gal(b1-4)GlcNAc(b1-6)]Man(a1-6)[GlcNAc(b1-3)Gal(b1-4)GlcNAc(b1-3)Gal(b1-4)GlcNAc(b1-2)Man(a1-3)]Man(b1-4)GlcNAc(b1-4)[Fuc(a1-6)]GlcNAc
Summary of the method: as §1

[15] = target: GlcNAc(b1-3)Gal(b1-4)GlcNAc(b1-3)Gal(b1-4)GlcNAc(b1-3)Gal(b1-4)GlcNAc(b1-2)Man(a1-3)[GlcNAc(b1-3)Gal(b1-4)GlcNAc(b1-3)Gal(b1-4)GlcNAc(b1-3)Gal(b1-4)GlcNAc(b1-2)Man(a1-6)]Man(b1-4)GlcNAc(b1-4)GlcNAc
Summary of the method: as §1

[16] = target: GlcNAc(b1-3)Gal(b1-4)GlcNAc(b1-3)Gal(b1-4)GlcNAc(b1-3)Gal(b1-4)GlcNAc(b1-2)Man(a1-3)[GlcNAc(b1-3)Gal(b1-4)GlcNAc(b1-3)Gal(b1-4)GlcNAc(b1-3)Gal(b1-4)GlcNAc(b1-2)Man(a1-6)]Man(b1-4)GlcNAc(b1-4)[Fuc(a1-6)]GlcNAc
Summary of the method: as §1

[17] = target: GlcNAc(b1-3)Gal(b1-4)GlcNAc(b1-3)Gal(b1-4)GlcNAc(b1-3)Gal(b1-4)GlcNAc(b1-2)[GlcNAc(b1-3)Gal(b1-4)GlcNAc(b1-3)Gal(b1-4)GlcNAc(b1-3)Gal(b1-4)GlcNAc(b1-6)]Man(a1-6)[GlcNAc(b1-3)Gal(b1-4)GlcNAc(b1-3)Gal(b1-4)GlcNAc(b1-3)Gal(b1-4)GlcNAc(b1-2)Man(a1-3)]Man(b1-4)GlcNAc(b1-4)[Fuc(a1-6)]GlcNAc
Summary of the method: as §1

[18] = target: GlcNAc(b1-3)Gal(b1-4)GlcNAc(b1-3)Gal(b1-4)GlcNAc(b1-3)Gal(b1-4)GlcNAc(b1-3)Gal(b1-4)GlcNAc(b1-2)Man(a1-3)[GlcNAc(b1-3)Gal(b1-4)GlcNAc(b1-3)Gal(b1-4)GlcNAc(b1-3)Gal(b1-4)GlcNAc(b1-3)Gal(b1-4)GlcNAc(b1-2)Man(a1-6)]Man(b1-4)GlcNAc(b1-4)GlcNAc
Summary of the method: as §1

[19] = target: GlcNAc(b1-3)Gal(b1-4)GlcNAc(b1-3)Gal(b1-4)GlcNAc(b1-3)Gal(b1-4)GlcNAc(b1-3)Gal(b1-4)GlcNAc(b1-2)Man(a1-3)[GlcNAc(b1-3)Gal(b1-4)GlcNAc(b1-3)Gal(b1-4)GlcNAc(b1-3)Gal(b1-4)GlcNAc(b1-3)Gal(b1-4)GlcNAc(b1-2)Man(a1-6)]Man(b1-4)GlcNAc(b1-4)[Fuc(a1-6)]GlcNAc
Summary of the method: as §1

[20] = target: GlcNAc(b1-3)Gal(b1-4)GlcNAc(b1-3)Gal(b1-4)GlcNAc(b1-3)Gal(b1-4)GlcNAc(b1-3)Gal(b1-4)GlcNAc(b1-2)[GlcNAc(b1-3)Gal(b1-4)GlcNAc(b1-3)Gal(b1-4)GlcNAc(b1-3)Gal(b1-4)GlcNAc(b1-3)Gal(b1-4)GlcNAc(b1-6)]Man(a1-6)[GlcNAc(b1-3)Gal(b1-4)GlcNAc(b1-3)Gal(b1-4)GlcNAc(b1-3)Gal(b1-4)GlcNAc(b1-3)Gal(b1-4)GlcNAc(b1-2)Man(a1-3)]Man(b1-4)GlcNAc(b1-4)[Fuc(a1-6)]GlcNAc
Summary of the method: as §1

[21] = target: GlcNAc(b1-3)Gal(b1-4)GlcNAc(b1-3)Gal(b1-4)GlcNAc(b1-3)GalNAc
Summary of the method: as §1

[22] = target: GlcNAc(b1-3)Gal(b1-4)GlcNAc(b1-3)GalNAc
Summary of the method: as §1

[23] = target: GlcNAc(b1-3)Gal(b1-4)GlcNAc(b1-3)[GlcNAc(b1-3)Gal(b1-4)GlcNAc(b1-3)]GalNAc
Summary of the method: as §1

[24] = target: GlcNAc(b1-3)Gal(b1-4)GlcNAc(b1-6)[Gal(b1-3)]GalNAc
Summary of the method: as §1

[25] = target: GlcNAc(b1-3)Gal(b1-4)GlcNAc(b1-6)[GlcNAc(b1-3)Gal(b1-3)]GalNAc
Summary of the method: as §1

[26] = target: GlcNAc(b1-3)Gal(b1-4)GlcNAc(b1-6)[GlcNAc(b1-3)]Gal(b1-4)GlcNAc
Summary of the method: as §1

GlcNAc(b1-3)GalNAc = target: GlcNAc(b1-3)GalNAc
Summary of the method: as §1

GlcNAc(b1-3)Man = target: GlcNAc(b1-3)Man
Summary of the method: as §1

[27] = target: GlcNAc(b1-3)[GlcNAc(b1-4)][GlcNAc(b1-6)]GlcNAc
Summary of the method: as §1

[28] = target: GlcNAc(b1-3)[GlcNAc(b1-6)]Gal(b1-4)GlcNAc
Summary of the method: as §1

[29] = target: GlcNAc(b1-3)[GlcNAc(b1-6)]GalNAc
Summary of the method: as §1

[30] = target: GlcNAc(b1-4)Gal(b1-4)GlcNAc
Summary of the method: as §1

GlcNAc(b1-4)GlcNAc = target: GlcNAc(b1-4)GlcNAc
Summary of the method: as §1

[31] = target: GlcNAc(b1-4)GlcNAc(b1-4)GlcNAc
Summary of the method: as §1

[32] = target: GlcNAc(b1-4)GlcNAc(b1-4)GlcNAc(b1-4)GlcNAc(b1-4)GlcNAc
Summary of the method: as §1

B1: B1567 (Bifidobacterium sp) (protein)
chain: MKFTTAKKAVALTGAVAMLVSVAACGSDSGKSSQPAQDSDVKEITVWAWEPSLTQVAKDFEKETGIKVDLKNVGTNTKEYTQLDNAIEAGSGAPDVAQVEYYAVPQYAIKGNLLDITDKTSGYKDFYTPGPWASVQFAGKVYGLPMDSGPMAFFYNKEVFDKAGVDAEQIKTWDQYYDAAKKIHALGDNYYITSDTGDAGFFDSMTWLAGAKPFQTSSDGSEVTVNLTEDKGVKTFTDFWQKLLDEGLLDTKTAGWSEDWFKGMVDGTIASLFTGAWMPANLANSAADGAGKWRVTQMPTADGSTTNSENGGSSLAVLASTKKADAAYQFIEYANHGAGVATRVAGGAFPADKASLEKDSFKNATTVKNADGQDVDYFGGQKYNEVLAQAAENVSSGYQFLPFEVKARTIFGDYFGKSYTGDQKLSDGVAAWQKALQDYGKDQGFTVK
- glycan array binding signal (z-score) [1]: 0
- glycan array binding signal (z-score) [2]: -0.12
- glycan array binding signal (z-score) [3]: -0.088
- glycan array binding signal (z-score) [4]: -0.054
- glycan array binding signal (z-score) [5]: -0.113
- glycan array binding signal (z-score) (GlcNAc(b1-3)Fuc): -0.037
- glycan array binding signal (z-score) (GlcNAc(b1-3)Gal): -0.034
- glycan array binding signal (z-score) [6]: -0.081
- glycan array binding signal (z-score) (GlcNAc(b1-3)Gal(b1-4)Glc): -0.087
- glycan array binding signal (z-score) [7]: -0.127
- glycan array binding signal (z-score) [8]: -0.123
- glycan array binding signal (z-score) [9]: 0.033
- glycan array binding signal (z-score) [10]: -0.029
- glycan array binding signal (z-score) [11]: -0.124
- glycan array binding signal (z-score) [12]: 0.008
- glycan array binding signal (z-score) [13]: -0.075
- glycan array binding signal (z-score) [14]: 0.09
- glycan array binding signal (z-score) [15]: -0.073
- glycan array binding signal (z-score) [16]: -0.049
- glycan array binding signal (z-score) [17]: -0.057
- glycan array binding signal (z-score) [18]: -0.043
- glycan array binding signal (z-score) [19]: -0.059
- glycan array binding signal (z-score) [20]: -0.095
- glycan array binding signal (z-score) [21]: -0.12
- glycan array binding signal (z-score) [22]: -0.008
- glycan array binding signal (z-score) [23]: -0.052
- glycan array binding signal (z-score) [24]: -0.11
- glycan array binding signal (z-score) [25]: -0.096
- glycan array binding signal (z-score) [26]: -0.069
- glycan array binding signal (z-score) (GlcNAc(b1-3)GalNAc): -0.095
- glycan array binding signal (z-score) (GlcNAc(b1-3)Man): -0.055
- glycan array binding signal (z-score) [27]: -0.063
- glycan array binding signal (z-score) [28]: -0.114
- glycan array binding signal (z-score) [29]: -0.098
- glycan array binding signal (z-score) [30]: -0.09
- glycan array binding signal (z-score) (GlcNAc(b1-4)GlcNAc): -0.116
- glycan array binding signal (z-score) [31]: -0.184
- glycan array binding signal (z-score) [32]: -0.022
